Some of the results follow. Many values rest on one well or one pass, so single values are uncertain.
What follows are compounds tested on SkMel2 (assay: cell count relative to DMSO control; melanoma cells; higher = more viable cells). Conditions: library dose: standard library concentration; 72 h.
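Note: cells treated in 1,536-well plates, then fixed and DAPI-stained, with nuclei counted from automated high-throughput microscope images.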

Row | Compound | cell count [%]
1 | COCC[n+]1c2c(n(Cc3cnccn3)c1C)C(=O)c1ccccc1C2=O + O=c1cc(-c2cccc3c2Sc2ccccc2S3)oc(N2CCOCC2)c1 [KU55933] (first compound 0.002 µM, partner dose 5 µM) | 28.9
2 | Nc1cccc2c1CN(C1CCC(=O)NC1=O)C2=O (centres undefined) [lenalidomide] + O=C(CCCCCCC(=O)Nc1ccccc1)NO [vorinostat] (first compound 5 µM, partner dose 0.4 µM) | 77.9
3 | OCc1c[nH]c2ccccc12 [Indole-3-carbinol] + Cc1cc(N2CCOCC2)cc2[nH]c(-c3c(NC[C@@H](O)c4cccc(Cl)c4)cc[nH]c3=O)nc12 [BMS536924] (first compound 4 µM, partner dose 1 µM) | 77.4
4 | Clc1ccc(Nc2nnc(Cc3ccncc3)c3ccccc23)cc1 [vatalanib] + NC(=O)Nc1cc(-c2cccc(F)c2)sc1C(=O)N[C@H]1CCCNC1 [AZD7762] (first compound 10 µM, partner dose 0.1 µM) | 86.4

The compounds below were run on SkMel30 in the same assay as above. Conditions: library dose: standard library concentration; 72 h.

Row | Compound | cell count [%]
5 | O=C(CCCCCCC(=O)Nc1ccccc1)NO [vorinostat] + O=S(=O)(c1ccccc1)N(CC(F)(F)F)c1ccc(C(O)(C(F)(F)F)C(F)(F)F)cc1 [T0901317] (first compound 0.4 µM, partner dose 7 µM) | 85.7
6 | Nc1cccc2c1CN(C1CCC(=O)NC1=O)C2=O (centres undefined) [lenalidomide] + Cn1cncc1[C@@](N)(c1ccc(Cl)cc1)c1ccc2c(c1)c(-c1cccc(Cl)c1)cc(=O)n2C [tipifarnib] (first compound 5 µM, partner dose 0.05 µM) | 115
7 | COCC[n+]1c2c(n(Cc3cnccn3)c1C)C(=O)c1ccccc1C2=O + Cn1cncc1[C@@](N)(c1ccc(Cl)cc1)c1ccc2c(c1)c(-c1cccc(Cl)c1)cc(=O)n2C [tipifarnib] (first compound 0.002 µM, partner dose 0.05 µM) | 80.3
8 | Cn1c(Nc2ccc(C(F)(F)F)cc2)nc2cc(Oc3ccnc(-c4ncc(C(F)(F)F)[nH]4)c3)ccc21 + Oc1nc(-c2ccc(C(F)(F)F)cc2)nc2c1CSCC2 [XAV939] (first compound 0.4 µM, partner dose 10 µM) | 74.1
9 | Clc1ccc(Nc2nnc(Cc3ccncc3)c3ccccc23)cc1 [vatalanib] + C=CCn1c(=O)c2cnc(Nc3ccc(N4CCN(C)CC4)cc3)nc2n1-c1cccc(C(C)(C)O)n1 [MK1775] (first compound 10 µM, partner dose 0.1 µM) | 73.3
10 | OCc1c[nH]c2ccccc12 [Indole-3-carbinol] + C[C@@H]1CCN(C(=O)CC#N)C[C@@H]1N(C)c1ncnc2[nH]ccc12 [CP690550] (first compound 4 µM, partner dose 5 µM) | 123
11 | Cn1c(Nc2ccc(C(F)(F)F)cc2)nc2cc(Oc3ccnc(-c4ncc(C(F)(F)F)[nH]4)c3)ccc21 + Nc1cccc2c1CN(C1CCC(=O)NC1=O)C2=O [lenalidomide] (first compound 0.4 µM, partner dose 5 µM) | 77.6
12 | COCC[n+]1c2c(n(Cc3cnccn3)c1C)C(=O)c1ccccc1C2=O + O=C(O)C(=O)Nc1sc2c(c1C(=O)O)CCNC2 [TCS401] (first compound 0.002 µM, partner dose 8.33333 µM) | 72.2
13 | C#Cc1cccc(Nc2ncnc3cc(OCCOC)c(OCCOC)cc23)c1 [erlotinib] + O=C(Nc1cccc(Cl)c1)Nc1ncc(CCNc2ncnc3ccsc23)s1 [SNS314] (first compound 4 µM, partner dose 0.004 µM) | 82.1
14 | Cn1c(Nc2ccc(C(F)(F)F)cc2)nc2cc(Oc3ccnc(-c4ncc(C(F)(F)F)[nH]4)c3)ccc21 + COc1ccc2c(c1)CCC1C2CCC2(C)C(NCCCCCCN3C(=O)C=CC3=O)CCC12 [U73122] (first compound 0.4 µM, partner dose 2 µM) | 50
15 | Nc1cccc2c1CN(C1CCC(=O)NC1=O)C2=O (centres undefined) [lenalidomide] + O=S(=O)(c1ccccc1)N(CC(F)(F)F)c1ccc(C(O)(C(F)(F)F)C(F)(F)F)cc1 [T0901317] (first compound 5 µM, partner dose 7 µM) | 106
16 | OCc1c[nH]c2ccccc12 [Indole-3-carbinol] + O=C(CCCCCCC(=O)Nc1ccccc1)NO [vorinostat] (first compound 4 µM, partner dose 0.4 µM) | 101
17 | Nc1cccc2c1CN(C1CCC(=O)NC1=O)C2=O (centres undefined) [lenalidomide] + COc1ccc(COc2ccc(Cc3cnc(N)nc3N)cc2OC)cc1 [GW2580] (first compound 5 µM, partner dose 5 µM) | 80.6
18 | C#Cc1cccc(Nc2ncnc3cc(OCCOC)c(OCCOC)cc23)c1 [erlotinib] + COc1cc2ncnc(Nc3ccc(Oc4ccccc4)cc3)c2cc1OC [SrcI1] (first compound 4 µM, partner dose 10 µM) | 74
19 | OCc1c[nH]c2ccccc12 [Indole-3-carbinol] + CC1(C)NC(=O)N(c2ccc([N+](=O)[O-])c(C(F)(F)F)c2)C1=O [nilutamide] (first compound 4 µM, partner dose 5 µM) | 103
20 | OCc1c[nH]c2ccccc12 [Indole-3-carbinol] + CN(NC(=O)CC(=O)NN(C)C(=S)c1ccccc1)C(=S)c1ccccc1 [STA4783] (first compound 4 µM, partner dose 0.03 µM) | 73.4
21 | Clc1ccc(Nc2nnc(Cc3ccncc3)c3ccccc23)cc1 [vatalanib] + Cc1cc(N2CCOCC2)cc2[nH]c(-c3c(NC[C@@H](O)c4cccc(Cl)c4)cc[nH]c3=O)nc12 [BMS536924] (first compound 10 µM, partner dose 1 µM) | 113
22 | O=C(CCCCCCC(=O)Nc1ccccc1)NO [vorinostat] + O=C(O)C(=O)Nc1sc2c(c1C(=O)O)CCNC2 [TCS401] (first compound 0.4 µM, partner dose 8.33333 µM) | 98.2
23 | Nc1cccc2c1CN(C1CCC(=O)NC1=O)C2=O (centres undefined) [lenalidomide] + CN(C)S(=O)(=O)c1ccc2c(c1)/C(=C/c1cc3c([nH]1)CCCC3)C(=O)N2 [SU6656] (first compound 5 µM, partner dose 2 µM) | 88.1
24 | Nc1cccc2c1CN(C1CCC(=O)NC1=O)C2=O (centres undefined) [lenalidomide] + COC(=O)c1sccc1S(=O)(=O)Nc1ccc(Nc2ccccc2)cc1OC [GSK0660] (first compound 5 µM, partner dose 5 µM) | 82.4
25 | Nc1cccc2c1CN(C1CCC(=O)NC1=O)C2=O (centres undefined) [lenalidomide] + N#Cc1c(O)c2c(-c3ccc(-c4ccccc4O)cc3)csc2[nH]c1=O [A769662] (first compound 5 µM, partner dose 10 µM) | 94.3
26 | COCC[n+]1c2c(n(Cc3cnccn3)c1C)C(=O)c1ccccc1C2=O + COc1ccc(COc2ccc(Cc3cnc(N)nc3N)cc2OC)cc1 [GW2580] (first compound 0.002 µM, partner dose 5 µM) | 82.7
27 | Cn1c(Nc2ccc(C(F)(F)F)cc2)nc2cc(Oc3ccnc(-c4ncc(C(F)(F)F)[nH]4)c3)ccc21 + Cc1cc(N2CCOCC2)cc2[nH]c(-c3c(NC[C@@H](O)c4cccc(Cl)c4)cc[nH]c3=O)nc12 [BMS536924] (first compound 0.4 µM, partner dose 1 µM) | 50.3
28 | COCC[n+]1c2c(n(Cc3cnccn3)c1C)C(=O)c1ccccc1C2=O + Oc1cc(-c2nc(-c3ccccc3)[nH]c2-c2ccncc2)ccc1Cl [L779450] (first compound 0.002 µM, partner dose 1 µM) | 56.9
29 | C#Cc1cccc(Nc2ncnc3cc(OCCOC)c(OCCOC)cc23)c1 [erlotinib] + O=C1NC(=O)/C(=C/c2ccc(-c3ccc(F)cc3O)o2)S1 [AS252424] (first compound 4 µM, partner dose 5 µM) | 79.6
30 | Cn1c(Nc2ccc(C(F)(F)F)cc2)nc2cc(Oc3ccnc(-c4ncc(C(F)(F)F)[nH]4)c3)ccc21 + NCC(=O)Nc1ccc(-n2nc(C(F)(F)F)cc2-c2ccc3c(ccc4ccccc43)c2)cc1 [OSU03012] (first compound 0.4 µM, partner dose 5 µM) | 31
31 | C#Cc1cccc(Nc2ncnc3cc(OCCOC)c(OCCOC)cc23)c1 [erlotinib] + COc1ccc2c(c1)CCC1C2CCC2(C)C(NCCCCCCN3C(=O)C=CC3=O)CCC12 [U73122] (first compound 4 µM, partner dose 2 µM) | 75.6
32 | Clc1ccc(Nc2nnc(Cc3ccncc3)c3ccccc23)cc1 [vatalanib] + OCCn1cc(-c2cnc3nnn(Cc4ccc5ncccc5c4)c3n2)cn1 [PF04217903] (first compound 10 µM, partner dose 5 µM) | 86.4
33 | Nc1cccc2c1CN(C1CCC(=O)NC1=O)C2=O (centres undefined) [lenalidomide] + COc1ccc(-c2ccc3c(N4CCOCC4)nc(N4C[C@@H](C)O[C@@H](C)C4)nc3n2)cc1CO [KU0063794] (first compound 5 µM, partner dose 0.1 µM) | 84
34 | O=C(CCCCCCC(=O)Nc1ccccc1)NO [vorinostat] + C[C@@H]1CCN(C(=O)CC#N)C[C@@H]1N(C)c1ncnc2[nH]ccc12 [CP690550] (first compound 0.4 µM, partner dose 5 µM) | 82.2
